In the supplement of paper PMC12217912:
The list shows a part of the results. Sequences were assembled here from the parent chain. Values near 0.05 are background.

B1: TEV protease; numbered along this chain (parent)
chain: MGESLFKGPRDYNPISSSICHLTNESDGHTTSLYGIGFGPFIITNKHLFRRNNGTLVVQSLHGVFKVKDTTTLQQHLVDGRDMIIIRMPKDFPPFPQKLKFREPQREERICLVTTNFQTKSMSSMVSDTSCTFPSGDGIFWKHWIQTKDGQCGSPLVSTRDGFIVGIHSASNFTNTNNYFTSVPKNFMELLTNQEAQQWVSGWRLNADSVLWGGHKVFMVKPEEPFQPVKEATQL

Variants of: B1
Test: raw area under fraction-flipped curve 0-4 h after induction (AUC4h, not background-subtracted), DNA-recorder readout of cleavage of the substrate (dimensionless); higher = more cleavage of the substrate by the protease variant
Conditions: temperature: 34 °C; time window: 0-4 h after rhamnose induction
Experimental: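 In vivo DNA recorder in E. coli TOP10(DE3) ΔrhaA at 34 °C. Each TEVp single-site mutant (parent TEVp 0) is paired with a single-site variant of the 7-mer TEVs (canonical ENLYFQ|S). The substrate sits between flexible linkers in a Bxb1-sfGFP-TEVs-SsrA fusion, so cleavage stabilises Bxb1 and speeds flipping of a recombination array, read by NGS. The value is the raw area under the fraction-flipped curve over 0-4 h after rhamnose induction (AUC4h), with ≥20 reads per time point. It is not background-subtracted; inactive controls average about 0.047.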
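Also: Bxb1 expression induced with 0.2% (w/v) L-rhamnose at OD600 near 0.5, cultures sampled hourly, flipped fraction per protease–substrate barcode pair counted by paired-end Illumina sequencing.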

Row | Variant | area with substrate ANLYFQS | area with substrate CNLYFQS | area with substrate FNLYFQS | area with substrate HNLYFQS | area with substrate INLYFQS | area with substrate LNLYFQS | area with substrate MNLYFQS | area with substrate NNLYFQS | area with substrate QNLYFQS | area with substrate SNLYFQS | area with substrate TNLYFQS | area with substrate VNLYFQS | area with substrate WNLYFQS | area with substrate YNLYFQS | area with substrate DNLYFQS | area with substrate GNLYFQS | area with substrate PNLYFQS | area with substrate RNLYFQS | area with substrate KNLYFQS
1 | G54Y | 0.0774 | 0.0727 | 0.0569 | 0.0538 | 0.048 | 0.0743 | 0.0766 | 0.0695 | 0.0716 | 0.0487 | 0.0699 | 0.0511 | 0.0429 | 0.058 |  |  |  |  | 
2 | G54N | 0.0364 |  | 0.045 | 0.0828 | 0.0613 | 0.0515 | 0.0443 |  |  | 0.0335 | 0.0551 |  | 0.0536 | 0.0474 | 0.0637 | 0.0537 | 0.0586 |  | 
3 | K66V | 0.0561 | 0.0615 | 0.0689 | 0.0606 |  |  |  |  |  |  | 0.0743 |  |  | 0.0736 |  |  | 0.0617 |  | 
4 | K66I | 0.068 | 0.0705 | 0.048 | 0.0853 | 0.0774 |  | 0.0787 | 0.0663 |  |  |  | 0.0705 | 0.0618 |  |  | 0.0566 |  | 0.115 | 
5 | G37N | 0.0609 | 0.0566 | 0.0706 |  | 0.0592 | 0.0636 |  |  |  | 0.0539 | 0.0489 |  | 0.0547 | 0.0258 |  | 0.0521 | 0.0521 | 0.0281 | 0.068
6 | G37K | 0.042 |  | 0.0411 | 0.048 | 0.0441 | 0.0531 | 0.0507 | 0.0505 |  |  | 0.0615 | 0.056 | 0.048 | 0.0301 | 0.0167 |  | 0.0525 |  | 0.0625
7 | F41V | 0.0805 | 0.0561 | 0.0469 | 0.0692 |  |  | 0.0581 | 0.0618 |  | 0.0635 | 0.0554 | 0.0625 | 0.0597 | 0.0546 |  | 0.0635 | 0.0633 |  | 0.0714
8 | F41L | 0.0612 | 0.0596 |  | 0.0612 | 0.0555 | 0.0646 |  | 0.0631 |  |  | 0.0627 | 0.0649 | 0.0509 | 0.0493 |  | 0.0813 | 0.0601 |  | 0.067
9 | L61D | 0.0662 |  | 0.0608 | 0.0553 | 0.0417 | 0.0573 |  | 0.064 |  |  | 0.0645 | 0.0776 | 0.0646 | 0.0653 | 0.0865 |  | 0.0688 | 0.0596 | 
10 | L61K | 0.0718 | 0.0659 | 0.0403 |  | 0.0667 |  | 0.0729 |  |  |  | 0.0582 |  | 0.0596 |  |  | 0.067 | 0.0704 |  | 
11 | K46Q | 0.0717 |  | 0.0412 | 0.0689 | 0.051 |  | 0.052 |  |  |  |  |  | 0.0558 | 0.0645 | 0.063 | 0.0712 | 0.068 | 0.0693 | 0.0482
12 | K46L | 0.0565 |  |  | 0.0622 | 0.0656 | 0.0642 | 0.0671 | 0.0611 |  | 0.0573 | 0.0325 |  | 0.0677 | 0.0625 | 0.0496 | 0.0675 | 0.0606 |  | 0.0675
13 | K46H | 0.058 |  | 0.0308 | 0.0696 | 0.0477 | 0.0569 | 0.0524 | 0.0809 |  | 0.0548 | 0.063 | 0.0544 | 0.0521 | 0.0539 | 0.0524 | 0.0447 | 0.0576 | 0.0552 | 0.0535
14 | K46Y | 0.0882 |  |  | 0.06 | 0.0364 |  | 0.0447 | 0.0345 | 0.0471 |  | 0.0594 |  | 0.0538 | 0.0438 | 0.0595 | 0.054 |  |  | 0.0597
